Assay results: the supplement of paper PMC4967469

Columns and labels:
Assay in all cases: Viability of human cancer cell lines after 72 h of drug (GDSC screen)
LAQ824 = compound: O=C(/C=C/c1ccc(CN(CCO)CCc2c[nH]c3ccccc23)cc1)NO [LAQ824]; details: top dose 1.024 µM; top dose inferred
Method: (§1)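 Human cancer cell lines in 384-well plates, medium with 10% serum, drug for 72 h over a 256-fold dose range (nine 2-fold or five 4-fold steps up to the top dose). Adherent lines were fixed and stained with the nucleic acid dye Syto60, suspension lines read with resazurin; signal relative to control wells, capped at 0 and 100%. One two-parameter sigmoid per drug and line, fitted in a mixed model over all curves with the slope shared within a line.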

HG-5-88-01 = compound: COc1cc(N2CCC(C(N)=O)CC2)ccc1Nc1nc(N)c(Cl)c(Nc2ccccc2S(=O)(=O)C(C)C)n1 [HG-5-88-01]; details: top dose 10 µM; top dose inferred
Method: as §1

OSI-930 = compound: O=C(Nc1ccc(OC(F)(F)F)cc1)c1sccc1NCc1ccnc2ccccc12 [OSI-930]; details: top dose 10.24 µM
Method: as §1

BX-912 = compound: O=C(Nc1cccc(Nc2ncc(Br)c(NCCc3cnc[nH]3)n2)c1)N1CCCC1 [BX-912]; details: top dose 10.24 µM; top dose inferred
Method: as §1

Bleomycin = compound: Cc1c(N)nc([C@H](CC(N)=O)NC[C@H](N)C(N)=O)nc1C(=O)N[C@H](C(=O)N[C@H](C)[C@@H](O)[C@H](C)C(=O)N[C@H](C(=O)NCCc1nc(-c2nc(C(=O)NCCC[S+](C)C)cs2)cs1)[C@@H](C)O)[C@@H](OC1OC(CO)C(O)C(O)C1OC1OC(CO)C(O)C(OC(N)=O)C1O)c1cnc[nH]1 [Bleomycin]
Method: as §1

VNLG/124 = compound: CCCC(=O)OCc1ccc(OC(=O)/C=C(C)/C=C/C=C(C)/C=C/C2=C(C)CCCC2(C)C)cc1 [VNLG/124]; details: top dose 5.12 µM; top dose inferred
Method: as §1

Elesclomol = compound: CN(NC(=O)CC(=O)NN(C)C(=S)c1ccccc1)C(=S)c1ccccc1 [Elesclomol]; details: top dose 0.2 µM; top dose inferred
Method: as §1

Tamoxifen = compound: CC/C(=C(\c1ccccc1)c1ccc(OCCN(C)C)cc1)c1ccccc1 [Tamoxifen]; details: top dose 5 µM
Method: as §1

Masitinib = compound: Cc1ccc(NC(=O)c2ccc(CN3CCN(C)CC3)cc2)cc1Nc1nc(-c2cccnc2)cs1 [Masitinib]; details: top dose 20 µM
Method: as §1

NSC-87877 = compound: O=S(=O)(O)c1ccc2cc(N=Nc3cc(S(=O)(=O)O)c4cccnc4c3O)ccc2c1 [NSC-87877]; details: top dose 16 µM; top dose inferred
Method: as §1

[1] = top dose 50 µM, screen: GDSC drug entry 1378, top dose inferred
[2] = top dose 64 µM, screen: GDSC drug entry 190

Cell Line	AUC (LAQ824)	IC50 (LAQ824)	AUC (HG-5-88-01)	IC50 (HG-5-88-01)	AUC (OSI-930)	IC50 (OSI-930)	AUC (BX-912)	IC50 (BX-912)	AUC (Bleomycin; [1])	IC50 (Bleomycin; [1])	AUC (Bleomycin; [2])	IC50 (Bleomycin; [2])	AUC (VNLG/124)	IC50 (VNLG/124)	AUC (Elesclomol)	IC50 (Elesclomol)	AUC (Tamoxifen)	IC50 (Tamoxifen)	AUC (Masitinib)	IC50 (Masitinib)	AUC (NSC-87877)	IC50 (NSC-87877)
HSC-2 (head and neck, adherent)	0.444	0.0456 µM	0.937	> 10 µM	0.984	> 10.2 µM	0.971	> 10.2 µM	0.159	0.314 µM	0.439	2.76 µM	0.989	> 5.12 µM	0.821	0.104 µM	0.984	> 5 µM	0.973	> 20 µM	0.957	> 16 µM
LCLC-97TM1 (large cell lung carcinoma, adherent)	0.404	0.0341 µM	0.837	7.61 µM	0.813	6.22 µM	0.681	2.16 µM	0.175	0.288 µM	0.348	1.46 µM	0.943	> 5.12 µM	0.858	0.19 µM	0.977	> 5 µM	0.784	9.35 µM	0.958	> 16 µM
H513 (mesothelioma, semi-adherent)	0.776	0.502 µM	0.945	> 10 µM	0.984	> 10.2 µM	0.975	> 10.2 µM	0.766	22.3 µM	0.906	> 64 µM	0.986	> 5.12 µM	0.854	> 0.2 µM	0.984	> 5 µM	0.977	> 20 µM	0.894	> 16 µM
HCC2998 (large intestine, adherent)	0.437	0.0433 µM	0.952	> 10 µM	0.979	> 10.2 µM	0.953	> 10.2 µM	0.665	8.87 µM	0.034	< 0.25 µM	0.984	> 5.12 µM	0.84	0.132 µM	0.985	> 5 µM	0.942	> 20 µM	0.968	> 16 µM
TGBC1TKB (biliary tract, adherent)	0.636	0.151 µM	0.94	> 10 µM	0.983	> 10.2 µM	0.989	> 10.2 µM	0.916	> 50 µM	0.805	32.1 µM	0.989	> 5.12 µM	0.676	0.0386 µM	0.988	> 5 µM	0.926	> 20 µM	0.984	> 16 µM
LC-1-sq (lung squamous cell carcinoma, adherent)	0.418	0.0366 µM	0.983	> 10 µM	0.97	> 10.2 µM	0.933	> 10.2 µM	0.841	43.8 µM	0.812	41.6 µM	0.955	> 5.12 µM	0.917	> 0.2 µM	0.983	> 5 µM	0.935	> 20 µM	0.985	> 16 µM
NOMO-1 (acute myeloid leukaemia, suspension)	0.454	0.0471 µM	0.895	> 10 µM	0.981	> 10.2 µM	0.673	2.09 µM	0.712	13.6 µM	0.521	4.61 µM	0.826	3.69 µM	0.486	0.0114 µM	0.897	> 5 µM	0.865	> 20 µM	0.982	> 16 µM
JHH-1 (liver, adherent)	0.276	0.0138 µM	0.928	> 10 µM	0.978	> 10.2 µM	0.938	> 10.2 µM	0.805	27.8 µM	0.489	3.72 µM	0.963	> 5.12 µM	0.598	0.0238 µM	0.961	> 5 µM	0.854	18 µM	0.981	> 16 µM
CAL-12T (non-small cell lung carcinoma, adherent)	0.444	0.044 µM	0.916	> 10 µM	0.849	9.09 µM	0.896	> 10.2 µM	0.605	6.31 µM	0.198	0.444 µM	0.984	> 5.12 µM	0.788	0.0995 µM	0.976	> 5 µM	0.865	> 20 µM	0.981	> 16 µM
NCI-H2087 (lung adenocarcinoma, semi-adherent)	0.514	0.0699 µM	0.944	> 10 µM	0.902	> 10.2 µM	0.869	> 10.2 µM	0.7	12 µM	0.446	2.81 µM	0.984	> 5.12 µM	0.941	> 0.2 µM	0.984	> 5 µM	0.877	> 20 µM	0.986	> 16 µM
A388 (skin, adherent)	0.508	0.0673 µM	0.957	> 10 µM	0.956	> 10.2 µM	0.901	> 10.2 µM	0.515	3.45 µM	0.271	0.8 µM	0.978	> 5.12 µM	0.474	0.0105 µM	0.964	> 5 µM	0.928	> 20 µM	0.983	> 16 µM
VAL (B-cell lymphoma, suspension)	0.539	0.0817 µM	0.982	> 10 µM	0.916	> 10.2 µM	0.651	1.68 µM	0.861	42.7 µM	0.191	0.477 µM	0.951	> 5.12 µM	0.692	0.0432 µM	0.982	> 5 µM	0.737	5.96 µM	0.98	> 16 µM
PANC-02-03 (pancreas, adherent)	0.472	0.0528 µM	0.946	> 10 µM	0.975	> 10.2 µM	0.97	> 10.2 µM	0.518	3.53 µM	0.636	10.3 µM	0.982	> 5.12 µM	0.552	0.0178 µM	0.972	> 5 µM	0.913	> 20 µM	0.983	> 16 µM
LoVo (large intestine, adherent)	0.339	0.0227 µM	0.963	> 10 µM	0.961	> 10.2 µM	0.987	> 10.2 µM	0.446	2.22 µM	0.115	< 0.25 µM	0.984	> 5.12 µM	0.779	0.0827 µM	0.986	> 5 µM	0.987	> 20 µM	0.984	> 16 µM
OCI-LY-19 (B-cell lymphoma, suspension)	0.298	0.0182 µM	0.913	> 10 µM	0.888	10 µM	0.317	0.206 µM	0.466	2.55 µM	0.075	< 0.25 µM	0.903	> 5.12 µM	0.544	0.0163 µM	0.95	> 5 µM	0.877	17.4 µM	0.984	> 16 µM
EW-11 (Ewing sarcoma, adherent)	0.468	0.0512 µM	0.566	1 µM	0.927	> 10.2 µM	0.769	5.02 µM	0.899	> 50 µM	0.549	5.66 µM	0.885	> 5.12 µM	0.353	0.00432 µM	0.921	> 5 µM	0.87	> 20 µM	0.953	> 16 µM
G-MEL (melanoma, adherent)	0.592	0.114 µM	0.973	> 10 µM	0.917	> 10.2 µM	0.915	> 10.2 µM	0.715	12.6 µM	0.685	13.1 µM	0.983	> 5.12 µM	0.304	0.00354 µM	0.985	> 5 µM	0.828	12.1 µM	0.871	14.7 µM
NCI-H345 (small cell lung carcinoma, suspension)	0.789	0.478 µM	0.968	> 10 µM	0.982	> 10.2 µM	0.987	> 10.2 µM	0.958	> 50 µM	0.972	> 64 µM	0.99	> 5.12 µM	0.969	> 0.2 µM	0.989	> 5 µM	0.99	> 20 µM	0.99	> 16 µM
DOK (head and neck, adherent)	0.678	0.26 µM	0.66	2.18 µM	0.975	> 10.2 µM	0.933	> 10.2 µM	0.596	6.53 µM	0.917	> 64 µM	0.966	> 5.12 µM	0.566	0.0208 µM	0.971	> 5 µM	0.958	> 20 µM	0.973	> 16 µM
OCI-AML3 (acute myeloid leukaemia, suspension)	0.392	0.0338 µM	0.948	> 10 µM	0.887	8.62 µM	0.85	6.11 µM	0.666	8.37 µM	0.875	48 µM	0.887	4.28 µM	0.987	> 0.2 µM	0.981	> 5 µM	0.856	12.6 µM	0.981	> 16 µM
A253 (head and neck, adherent)	0.686	0.208 µM	0.97	> 10 µM	0.987	> 10.2 µM	0.941	> 10.2 µM	0.158	0.288 µM	0.443	2.8 µM	0.985	> 5.12 µM	0.581	0.0207 µM	0.988	> 5 µM	0.902	> 20 µM	0.973	> 16 µM

A lower IC50 marks a more sensitive line; a fit beyond the top or the lowest dose is shown as a bound at that dose. AUC sums up the same curve from the lowest dose to the 256-fold higher top dose; it is 1 without any effect and falls as sensitivity rises. For part of these data: A top dose marked as inferred comes from the curve model; the source does not state it. For part of these data: Where an entry number is given, a second screen of the drug exists; the two often differ.
